# Assay results as given in PubChem BioAssay AID904 (National Center for Advancing Translational Sciences (NCATS), 2007).
# The whole screen tested about 55,000 compounds, of which about 530 (0.96%) were called active. The inconclusive results got no clear call from the source; some entries with a clear call stand among them for comparison. Calls come from the whole dose curve; as a rule, active = well fitted cell-killing curve with a large enough effect; inconclusive = small, poorly fitted or top-dose-only effect; inactive = no such curve, though single readings can be large or run the other way. Potencies of inconclusive entries are doubtful fits and often do not repeat.
# Experiment: qHTS Screen for Compounds that Selectively Target Cancer Cells with p53 Mutations: Cytotoxicity of p53 Null Cells at the Nonpermissive Temperature; note: nearly all actives have a fitted effect of over 50% in size;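 for activity, negative = cell killing: 0% = DMSO only and -100% = full killing by 100 µM tamoxifen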
# Settings: H1299 p53-null (neo) cells, 39C, ATPlite viability, 24 h; activity, negative = cell killing: at 46.1 µM (top of the series)
# Outline: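 ATP-luminescence viability readout (ATPlite, 20 min RT) after 24 hr compound treatment at 39C of H1299-neo or H1299-p53A138V cells; titration up to 46 uM; normalized to DMSO and 100 uM tamoxifen; Hill-fit AC50.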
# Potency is the fitted concentration of half-maximal effect; tags give direction and shape of the fitted curve.
SMILES,Potency,"activity, negative = cell killing"
Cc1cc(C)c(NC(=O)Cn2c(=O)n(CCC(=O)N3CCc4ccccc4C3)c(=O)c3ccccc32)c(C)c1,"inconclusive: 31.6 µM [cytotoxic, single point]",–
CCC(=O)NCCc1nc2cc(NC(=O)c3cccc(Br)c3)ccc2n1C,active: 10 µM,–
CCN(CC)C(=O)c1ccc2c(c1)N(Cc1ccc(C(F)(F)F)cc1)C(=O)c1ccccc1S2,"inconclusive: 31.6 µM [cytotoxic, single point]",–
COc1cc(NC(=O)N2CCc3c(sc4c3CCCC4)C2c2ccccc2)cc(OC)c1OC (centres undefined),"inconclusive: 0.0158 µM [cytotoxic, full curve, poor fit]",–
O=C(c1cnc(N2CCOCC2)c2ccccc12)N1CCN(c2ccccc2)CC1,active: 12.6 µM,–
O=c1[nH]c2cc(Br)ccc2n2cccc12,"inconclusive: 0.0089 µM [cytotoxic, full curve]",–
CCCCc1nnc(SCc2cc(=O)c3cc(F)ccc3[nH]2)n1C,"inconclusive: 0.0158 µM [cytotoxic, full curve, poor fit]",–
O=S(=O)(Nc1cccc(-c2ccc(N3CCCCCC3)nn2)c1)c1ccc(F)cc1,–,inactive: -13.4%
COc1ccc(NC(=O)CCCn2c(=O)c3cccn3c3ccccc32)c(OC)c1,"inconclusive: 10 µM [cytotoxic, partial curve]",–
Cc1cccc(Cn2ccn(Cc3ccc(Cl)cc3)c(=O)c2=O)c1,"inconclusive: 31.6 µM [cytotoxic, single point]",–
Cc1ccc(C2c3c(-c4cc(C)ccc4O)n[nH]c3C(=O)N2Cc2ccco2)cc1 (centres undefined),"inconclusive: 31.6 µM [cytotoxic, single point]",–
COc1ccc(NC(=O)c2noc3c2CSc2ccccc2-3)cc1Cl,–,inactive: 0.389%
CCC(=O)OCCCNc1nc(-c2ccc(Cl)cc2)nc2ccccc12,"inconclusive: 20 µM [cytotoxic, partial curve]",–
CC(C)(C)C1CCC(=NNS(=O)(=O)c2ccc(Br)cc2)CC1 (centres undefined),"inconclusive: 4.47 µM [cytotoxic, single point]",–
O=C(CC(c1ccccc1)c1cc(Br)ccc1O)NCC1(c2ccccc2)CCCC1 (centres undefined),active: 15.8 µM,–
CCOC(=O)c1ccc(NC(=O)Cc2ccc(-n3c(CC)nc4cccnc43)cc2)cc1,–,inactive: 7.87%
COc1cc(OC)cc(C(=O)Nc2c(C(=O)Nc3ccc(F)cc3)oc3ccccc23)c1,"inconclusive: 7.94 µM [cytotoxic, partial curve, poor fit]",–
Cc1cc(C)cc(NC(=O)Cn2nnc(C(=O)Nc3cc(C)cc(C)c3)c2N)c1,"inconclusive: 15.8 µM [cytotoxic, single point]",–
CC1CCN(CCNC(=O)c2ccc(Cn3c(SCc4ccccc4)nc4cccnc43)cc2)CC1,active: 12.6 µM,–
CC(C)c1nn2c(=O)cc(COC(=O)c3ccc(NC(=O)CCc4ccccc4)cc3)nc2s1,"inconclusive: 0.01 µM [cytotoxic, full curve, poor fit]",–
Cc1cccc(-c2nc3scc(CCNC(=O)c4ccccc4Cl)n3n2)c1,"inconclusive: 0.158 µM [cytotoxic, full curve, poor fit]",–
Cc1ccccc1Nc1c2c(nc3nncn13)CCC2,–,inactive: -19.6%

SMILES,Potency,"activity, negative = cell killing"
O=C(COc1ccc(F)cc1)Nc1ccc2nc(SCc3ccccc3)sc2c1,–,inactive: -1.8%
O=C(CC1(O)C(=O)N(CCc2ccccc2)c2ccc(Br)cc21)c1ccccc1O (centres undefined),"inconclusive: 35.5 µM [cytotoxic, single point]",–
COc1ccccc1CNC(=O)c1cccc(Nc2nc3ccccc3n3nnnc23)c1,–,inactive: -27.6%
Cc1cccc(N2C(=O)CCSC23C(=O)N(Cc2ccc(F)cc2)c2ccccc23)c1 (centres undefined),"inconclusive: 17.8 µM [cytotoxic, single point]",–
CCc1ccc(-c2ccc(C(=O)Oc3ccc(Br)cc3)cc2)nc1,"inconclusive: 10 µM [cytotoxic, partial curve]",–
CCC(=O)Oc1ccc(-c2nc3ccccc3c(=O)o2)cc1,"inconclusive: 20 µM [cytotoxic, single point]",–
CCN(CC)c1ccc(NC(=O)C2COc3ccc(OC)cc3C2)c(C)c1 (centres undefined),"inconclusive: 0.501 µM [cytotoxic, full curve]",–
O=S(=O)(c1cccc(Cl)c1)c1nnn2c1nc(NC1CCCCCC1)c1sccc12,–,inactive: -1.03%
COc1ccccc1-c1cc(C(=O)Nc2cc(Cl)ccc2O)no1,–,inactive: -11.8%
CCc1cccc(C)c1NC(=O)CSc1nnc(N)s1,–,inactive: -15.2%
COc1ccc(N2CCN(C(=O)Nc3cccc(C(F)(F)F)c3)CC2)cc1,–,inactive: 4.02%
Cc1ccc(OCC(=O)Nc2ccc(C(=O)OCc3cc(=O)n4c(C)csc4n3)cc2)cc1,–,inactive: -25.1%
Fc1ccc(CNc2nc(-c3ccccc3)cc(C(F)(F)F)n2)cc1,"inconclusive: 31.6 µM [cytotoxic, single point]",–
Cc1cccc(CS(=O)(=O)c2ncc(Cl)c(C(=O)NCc3ccccc3)n2)c1,"inconclusive: 11.2 µM [cytotoxic, partial curve]",–
CC1(C)COCN1S(=O)(=O)c1ccc(C(=O)Nc2nnc(-c3ccc(Cl)s3)o2)cc1,"inconclusive: 2.24 µM [cytotoxic, full curve, poor fit]",–
CC(C)Cn1c(/C=C/c2ccc(F)cc2)nc2ccccc21,active: 7.94 µM,–
CCOc1ccc(NS(=O)(=O)c2ccc(NC(=O)N3CCCC3)cc2)cc1,–,inactive: 21.8%
CCCCOCc1cc(CN2CCN(c3cccc(Cl)c3)CC2)c(O)c2ncccc12,–,inactive: -6.89%
Cc1ccc(N2CCN(C(=O)c3cn(C)c4ccc(S(=O)(=O)N(C)C5CCCCC5)cc4c3=O)CC2C)cc1 (centres undefined),–,inactive: 9.92%
CCN1CCC(N(Cc2ccc3c(c2)OCO3)C(=O)Nc2ccc(Br)c(C)c2)CC1,"inconclusive: 35.5 µM [cytotoxic, single point]",–
CCN(CCCNC(=O)c1cc2cc3ccc(OC)cc3nc2s1)c1ccccc1,"inconclusive: 25.1 µM [cytotoxic, single point]",–
COc1ccc(NC(=O)Cn2c(SCc3ccc(C)cc3)nc3cccnc32)c(OC)c1,"inconclusive: 10 µM [cytotoxic, partial curve]",–
